From the supplement of paper PMC3334620
In all, about 33,000 sequences were measured (“E-score (-0.5 to 0.5)”: median about -0.053, highest 2% from about 0.37 on). This is one part of the list.

Biological target: Hap1 (UniProt P0CE41)
Assay: PBM E-score (8-mer binding enrichment) (E-score (-0.5 to 0.5)); higher = stronger / more preferred TF binding; most listed sequences are background and not binding sites
Conditions: protein concentration: 200 nM; construct: GST-DNA-binding domain
Summary of the method: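 Yeast transcription factors carrying a GST tag, as full-length proteins or DNA-binding domains, were produced by PURExpress in vitro transcription/translation. About 100-200 nM protein was applied to universal all-10-mer Agilent arrays, double-stranded by primer extension on fresh or once-stripped slides. Bound protein was detected with fluorescent anti-GST, and scans were normalised with masliner. The Universal PBM Analysis Suite gave each ungapped eight-base word, pooled with its reverse complement, an E-score, a modified Wilcoxon-Mann-Whitney statistic.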

Chain of UniProt P0CE41 (P0CE41 whole entry): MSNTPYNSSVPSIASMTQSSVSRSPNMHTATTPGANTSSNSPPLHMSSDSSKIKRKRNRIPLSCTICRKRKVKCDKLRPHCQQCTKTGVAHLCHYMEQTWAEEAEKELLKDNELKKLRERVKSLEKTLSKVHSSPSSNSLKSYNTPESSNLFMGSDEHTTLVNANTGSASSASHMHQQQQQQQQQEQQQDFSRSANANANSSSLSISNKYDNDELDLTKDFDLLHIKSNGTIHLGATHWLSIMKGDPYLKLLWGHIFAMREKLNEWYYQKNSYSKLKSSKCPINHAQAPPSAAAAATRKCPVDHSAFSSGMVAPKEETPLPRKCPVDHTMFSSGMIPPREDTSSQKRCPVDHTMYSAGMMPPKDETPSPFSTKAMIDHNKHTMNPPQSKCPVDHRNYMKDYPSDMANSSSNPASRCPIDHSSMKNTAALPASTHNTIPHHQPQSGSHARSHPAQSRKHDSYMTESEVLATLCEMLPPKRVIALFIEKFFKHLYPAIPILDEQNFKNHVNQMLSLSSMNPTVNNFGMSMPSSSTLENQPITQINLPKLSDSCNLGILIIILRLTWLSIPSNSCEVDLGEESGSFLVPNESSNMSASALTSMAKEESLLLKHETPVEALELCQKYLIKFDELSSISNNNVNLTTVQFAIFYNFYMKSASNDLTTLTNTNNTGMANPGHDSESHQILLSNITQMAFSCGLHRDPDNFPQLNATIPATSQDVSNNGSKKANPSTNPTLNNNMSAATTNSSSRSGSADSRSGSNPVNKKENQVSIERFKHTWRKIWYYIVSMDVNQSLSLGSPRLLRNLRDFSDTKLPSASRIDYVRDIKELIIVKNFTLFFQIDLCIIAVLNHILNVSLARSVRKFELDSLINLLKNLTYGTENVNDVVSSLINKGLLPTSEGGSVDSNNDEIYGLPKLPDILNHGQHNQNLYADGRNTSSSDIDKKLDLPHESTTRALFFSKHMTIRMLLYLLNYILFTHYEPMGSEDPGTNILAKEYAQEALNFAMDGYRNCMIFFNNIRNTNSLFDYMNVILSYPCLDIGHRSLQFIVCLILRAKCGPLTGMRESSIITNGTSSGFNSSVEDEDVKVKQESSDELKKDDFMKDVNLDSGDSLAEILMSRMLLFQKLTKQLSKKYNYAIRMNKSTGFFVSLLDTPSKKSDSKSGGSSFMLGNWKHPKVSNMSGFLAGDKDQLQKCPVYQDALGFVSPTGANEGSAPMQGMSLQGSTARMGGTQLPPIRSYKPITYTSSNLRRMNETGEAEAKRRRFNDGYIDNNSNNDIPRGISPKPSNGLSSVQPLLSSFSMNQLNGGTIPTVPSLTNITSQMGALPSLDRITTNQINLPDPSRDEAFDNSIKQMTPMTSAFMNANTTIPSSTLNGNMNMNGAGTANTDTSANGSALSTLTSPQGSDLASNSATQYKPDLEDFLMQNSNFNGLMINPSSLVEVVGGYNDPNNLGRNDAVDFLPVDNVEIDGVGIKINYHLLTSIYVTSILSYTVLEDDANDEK

Sequence	PBM E-score
CTGGGGGA	-0.226
CATAGTTC	0.0169
CGAACACC	0.0437
AATACGAG	-0.0536
AATGAACG	-0.204
AACCTACC	-0.0334
AACCATCC	0.0689
AACAAAAT	-0.148
CAGGCTCC	0.0525
CAGCCCAC	-0.189
ACTCTCGA	-0.184
AGCTAGGG	-0.106
ACAGTCCG	0.258
ACCCTATG	-0.304
CGTATTAA	0.0796
GCGGGGCC	0.234
ACTAAGTC	-0.0961
TATAAAGA	-0.202
CCCGGCCC	0.341
ACTATCGC	0.104
CTTCTTAC	0.0532
AAAGCTGT	-0.0581
GCCAATAA	-0.0084
CCTACGAG	-0.221
CCTAGAGA	-0.296

Sequence	PBM E-score
GCAGCTGC	0.0228
TCGGCGCA	0.27
AAAAACCC	0.134
CTAGTGTA	-0.271
GATGCTCC	0.206
CTATCAAA	-0.0068
CTCCGGGC	0.341
CCCCGAGC	0.351
TCAAGCCA	-0.0578
AGATGCTG	-0.205
GCGTGCCC	-0.0226
GAAAGGTA	-0.0295
AACATAAC	-0.034
CCGATTAG	0.312
ATCCTGGG	-0.0727
CCATTTAG	-0.115
CACCTGGA	-0.258
TCTTGTAA	-0.0768
ACGGAAGG	0.143
CTCGGTTA	0.296
CTGTCCAA	-0.122
GGTCTGAC	0.0513
CTTACTTC	0.0715
CGAAAGTA	0.0968
GGGCGCCA	0.0886

Sequence	PBM E-score
CCACCCTA	-0.165
CCATTTCG	0.11
GACTCGGA	0.405
CTTTATAA	-0.215
ACTCGACA	-0.0599
ACTGGTAT	-0.0718
ACCGGGTC	0.194
CTACGATC	-0.131
ACATTTAC	-0.173
CGGCGTAG	0.0917
ACAATTGC	-0.0911
ATTCAGAC	-0.301
CCTAGTGA	-0.0778
CTAAAGGC	-0.143
CGTTTTTA	0.0673
GGGCATAC	0.156
CTCTGTCA	-0.296
GGTCTGCA	0.0455
ACGCTCAT	-0.174
CGCTACGC	0.154
AAAGGGAC	-0.168
ATTTCGGG	0.29
CTCAAAAA	-0.158
AAACTAGG	-0.0582
CGTTCCAA	-0.0915

Sequence	PBM E-score
TAAGAAAA	-0.121
GTTGAACA	-0.155
GGTCCCCA	0.0281
AGCCCTCA	-0.0827
GCCCGTAC	0.0412
CCACAAAC	0.0992
GTTTCATA	-0.108
ATTTCAGA	-0.121
CGCAACGA	0.0199
AACTTCGG	0.33
CAGATGCG	-0.162
TTCGGCAA	0.185
ACCCCAGA	-0.213
AGCTGCCG	0.172
GTCTACAA	-0.272
AGACCCAG	-0.339
ACCCGCCA	-0.0193
CTCGGACC	0.375
GAATAATC	-0.0357
CAGATTAA	0.146
GTCTGAAA	-0.0828
AACCGTAA	0.159
CTAAGCGC	0.0967
CAGCCTGC	-0.27
ACAAGCAA	-0.243

Sequence	PBM E-score
AAGGACGG	0.0575
CCGTTCCG	0.289
CGATGTAC	0.0471
AATTCGTG	-0.0422
ATGCACAC	-0.0597
CATGATAG	-0.236
CAAAGCGA	0.0517
CCTTGCTC	0.00079
CGAACTTC	-0.059
GGCGCCTA	-0.121
AATACGGA	0.294
CTTTGTTC	0.11
AACGAGAG	-0.0289
TAGAGCTA	-0.229
CCCACGGA	0.278
AGATTAAT	0.0369
AAGGGTGT	0.141
GGTCTCAC	-0.00887
ATGGTACG	-0.0245
GGCGTCCC	0.00328
ATAATCTA	0.0153
CGCCCTAA	-0.0687
CAGCCAGC	-0.219
ATAAGACC	0.163
AACCTTGA	-0.0892

Sequence	PBM E-score
CGCCGGAA	0.357
ACCGGCCT	0.181
CTGTCCCC	-0.0758
GACACCAA	-0.00035
GACTGTCA	-0.107
CAAGGGAA	-0.172
CTTTAATC	0.117
CAGAAGTC	-0.105
TATAGCAA	-0.0406
ACCGCGCC	0.0941
AGTGAACC	-0.069
CACGAAAG	-0.147
GTCTTAAA	-0.0176
CATACGTC	0.145
TCCCCCAA	-0.288
TGGCGGAA	0.113
ACCGGAAA	0.417
GGATTTAA	0.444
CTGTGATC	-0.0322
AAATCTAT	0.0492
GCCCATAC	-0.194
GATTATAC	0.152
AAGCCAGG	-0.0951
ATCCCCGC	0.371
CTACTCGC	-0.0426

Sequence	PBM E-score
CCGACCAG	0.168
TGCTGCAA	-0.142
ATAGGTGA	-0.0836
CCGGAACC	0.35
CAGAGCAA	-0.155
CATGACTC	-0.291
CTGGTGCA	-0.255
CAGCGCAA	-0.18
AAGACATG	-0.258
GGCCCAAA	0.102
ACTGGACC	0.0992
GAATGTGC	-0.194
ATCATGAA	-0.163
CGTAAGCA	-0.123
CAGTCCAG	-0.189
AGATAAAC	0.21
CGGGCCAG	0.255
CTTGGGGC	-0.0418
AATGCAGT	-0.0352
CCATGTGC	-0.126
AGCCAGGG	-0.269
ACTGGATG	-0.233
AGCCTCTC	-0.254
CCACACCG	0.115
CCTGCGAC	-0.109

Sequence	PBM E-score
CAGCAGCG	-0.034
AGATGTTG	-0.0337
ATGAGGGA	-0.315
AGTTTAAA	0.0005
AGGTCGGG	0.151
GACGCTCA	-0.112
GCAGAAGC	-0.0329
ACAGTTAT	-0.0707
AGCTAGCA	-0.231
GACCCCAA	-0.0595
ACAATGTA	-0.0915
TCACATAA	-0.062
GCCCGAGC	0.311
ATCGTTAC	-0.186
ATAGGTTG	-0.102
ACCACGCT	-0.0502
GAGAGTAA	-0.0103
GCCCGTTA	0.287
CCCCCATA	-0.0887
CAAGATGC	0.0722
ATATGCTG	-0.197
GCAATACA	0.0803
CAAGTATC	-0.0874
ACATCGCA	-0.0398
GCTTCGTA	-0.371

Sequence	PBM E-score
CATCAGGC	-0.022
ATAAAATC	0.145
AGTCACTA	-0.153
ACGAGGTG	-0.102
AAGCGTAT	-0.0954
AATTAACT	0.0148
AAGCGCTA	0.149
CAGCCTAC	-0.0241
CCTCGCCG	0.0654
CGCGGGCA	0.256
CTCTACGC	-0.198
ACGGGCGC	0.184
CGCATTAG	-0.0393
CTTACGAC	-0.222
AAAGTCAG	-0.199
AAAACAAG	-0.196
CGTGCGAG	0.117
CAGTGTGG	-0.239
GCCCCTAA	0.0296
AGCACGTA	-0.154
CAAACTGC	-0.0478
ACGCGTAC	-0.176
GATACGCC	0.178
CTCGGTTC	0.123
AAGTATTC	-0.155

Sequence	PBM E-score
AGAGTGCT	-0.168
CAGCTCAA	-0.0862
ATTTGGCC	0.111
AACGCCTT	0.0685
ATCATAAT	-0.04
CGGCGTTA	0.476
GGATATAC	0.319
TACGTAGA	-0.173
ACAGCTCA	-0.251
CATTCCGC	0.122
ATAGACAG	-0.209
CTTTCTGA	-0.423
AACTTGAA	-0.0272
AAATCACC	0.109
GCACAGGA	-0.0781
GTCAAAGA	-0.257
AATCCGCT	0.243
CCCTGCGA	-0.248
CGTCGGCA	0.202
CGTCGCAA	-0.0187
CGGCGTGA	0.256
CCTACCAA	-0.168
AGGGTGCA	-0.0662
ATGATGCC	-0.129
ATTCACGC	-0.157

Sequence	PBM E-score
GACTACGA	-0.157
GATGTACC	-0.0479
GAAGCCCA	-0.0764
AACCGGGC	0.241
CCGGTGCA	0.328
AGCTGTAA	-0.222
CCGGCAGG	0.228
CCTTTGAG	-0.235
CTCATATC	-0.0765
TATGGTCA	-0.303
CCCTTCAG	-0.263
ATCTCAGA	-0.173
CACCGATA	0.375
AGTTATGG	-0.0493
GATAGACC	0.145
ATAAAAAC	-0.00499
CACCAGGC	-0.17
TAAGTAGA	-0.115
TATAAGGA	-0.119
CACCTAAG	-0.194
ATTGAGCC	-0.0632
CATAAAGG	0.0235
CAGTTTGC	-0.00161
CCTCCTAA	-0.135
CAGTCTCC	0.0476

Sequence	PBM E-score
AAATATCG	0.303
CGCTGGGA	0.0217
ACCAAGGT	-0.104
TCTGTAAA	-0.119
ACCATCCT	-0.296
CACCCCAC	-0.026
AGTGTTGG	-0.0111
CGTTGTTA	-0.051
GAGGCGCC	-0.0241
CAACTACG	-0.035
CGAGTACG	0.0449
TAGGAAGA	-0.258
ACGGATTC	0.216
TATGCGGA	0.273
CGCACGCA	0.0332
CAGGGACA	-0.0206
GTATTTCA	-0.16
AGCTCGGA	0.325
GCTGGCCA	-0.151
CCTACTTA	-0.122
ACAGACAA	0.0859
AGACGGGC	0.0829
AAGTCTCT	-0.346
ATCTACAG	0.0431
GAGCTCAC	-0.0549

Sequence	PBM E-score
CAATGTGA	-0.124
AGGCACAG	-0.333
ATCGGTAA	0.31
AGCCTTGA	-0.257
CAGACACA	-0.183
AGTTGCTA	-0.0548
CTAGGGTC	-0.266
CACGGGCG	0.135
CGAATAAA	0.185
CGAGGCAA	0.162
TCACTCGA	-0.17
CAAACCCC	0.0854
CGTGACGC	-0.122
AATCAGCT	-0.203
AACAGCGT	-0.0733
GTCTCCTA	-0.132
CTGAGGCC	0.075
TGCTAGAA	-0.118
ACAAAGAA	-0.101
GAATAAGC	-0.0976
GATCGGAA	0.325
ATTAACTG	-0.0615
GATAATGC	0.0031
GTGGGTCA	-0.2
AAGGCAGT	-0.255

Sequence	PBM E-score
AAGGCATA	-0.198
AAGCCGTA	0.0164
GAATAGAA	0.0298
AGACCGAA	0.281
CTGCTAAG	-0.146
ACGCATGG	0.00125
GATATCGC	0.304
ACGTACGG	0.126
GCACACGA	-0.168
CGAGGGCA	-0.00305
ATCGCTAA	0.00029
ACTTACCG	0.305
CACCTGTA	-0.173
GGAGGCAC	-0.0675
ATACAAAG	-0.00814
ACACAACG	0.0891
AACTCGCC	-0.0217
ACTAGACC	0.0797
AATCATTC	-0.0493
